# Source: the supplement of paper PMC8728848
# Some of the results follow.
# Key:
# Experiment in all cases: glycan array binding signal (z-score within array); higher = stronger binding
# Settings in all cases: glycan notation: IUPAC condensed, linker removed
# [1] = molecular target: Fuc(a1-3)[Gal3S(b1-4)]Glc
# Summary of the method: (§1)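 Columns mapping to the same glycan were averaged after glycan names were converted to IUPAC-condensed notation. The data come from 3228 arrays in the Consortium for Functional Glycomics database, limited to those with an available protein sequence. Binding is reported as a within-array Z-score averaged across arrays of one protein sequence and across linkers.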
# [2] = molecular target: Fuc(a1-3)[Gal3S(b1-4)]GlcNAc
# Summary of the method: as §1
# [3] = molecular target: Fuc(a1-3)[Gal3S(b1-4)]GlcNAc6S
# Summary of the method: as §1
# [4] = molecular target: Fuc(a1-3)[GalNAc(b1-4)]GlcNAc
# Summary of the method: as §1
# [5] = molecular target: Fuc(a1-3)[GalNAc(b1-4)]GlcNAc6S
# Summary of the method: as §1
# Fuc(a1-4)GlcNAc = molecular target: Fuc(a1-4)GlcNAc
# Summary of the method: as §1
# Fuc(b1-3)GlcNAc = molecular target: Fuc(b1-3)GlcNAc
# Summary of the method: as §1
# Gal(a1-2)Gal = molecular target: Gal(a1-2)Gal
# Summary of the method: as §1
# Gal(a1-3)Gal = molecular target: Gal(a1-3)Gal
# Summary of the method: as §1
# Gal(a1-3)Gal(b1-3)GlcNAc = molecular target: Gal(a1-3)Gal(b1-3)GlcNAc
# Summary of the method: as §1
# [6] = molecular target: Gal(a1-3)Gal(b1-3)GlcNAc(b1-2)Man
# Summary of the method: as §1
# [7] = molecular target: Gal(a1-3)Gal(b1-3)GlcNAc(b1-2)Man(a1-3)[Gal(a1-3)Gal(b1-3)GlcNAc(b1-2)Man(a1-6)]Man(b1-4)GlcNAc(b1-4)GlcNAc
# Summary of the method: as §1
# [8] = molecular target: Gal(a1-3)Gal(b1-3)GlcNAc(b1-3)GalNAc
# Summary of the method: as §1
# [9] = molecular target: Gal(a1-3)Gal(b1-3)GlcNAc(b1-6)GalNAc
# Summary of the method: as §1
# [10] = molecular target: Gal(a1-3)Gal(b1-3)[Fuc(a1-4)]GlcNAc(b1-2)Man(a1-3)[Gal(a1-3)Gal(b1-3)[Fuc(a1-4)]GlcNAc(b1-2)Man(a1-6)]Man(b1-4)GlcNAc(b1-4)GlcNAc
# Summary of the method: as §1
# Gal(a1-3)Gal(b1-4)Glc = molecular target: Gal(a1-3)Gal(b1-4)Glc
# Summary of the method: as §1
# Gal(a1-3)Gal(b1-4)GlcNAc = molecular target: Gal(a1-3)Gal(b1-4)GlcNAc
# Summary of the method: as §1
# [11] = molecular target: Gal(a1-3)Gal(b1-4)GlcNAc(b1-2)Man
# Summary of the method: as §1
# [12] = molecular target: Gal(a1-3)Gal(b1-4)GlcNAc(b1-2)Man(a1-3)[Gal(a1-3)Gal(b1-4)GlcNAc(b1-2)Man(a1-6)]Man(b1-4)GlcNAc(b1-4)GlcNAc
# Summary of the method: as §1
# [13] = molecular target: Gal(a1-3)Gal(b1-4)GlcNAc(b1-3)GalNAc
# Summary of the method: as §1
# [14] = molecular target: Gal(a1-3)Gal(b1-4)GlcNAc(b1-6)GalNAc
# Summary of the method: as §1
# [15] = molecular target: Gal(a1-3)Gal(b1-4)[Fuc(a1-3)]GlcNAc
# Summary of the method: as §1
# [16] = molecular target: Gal(a1-3)Gal(b1-4)[Fuc(a1-3)]GlcNAc(b1-2)Man(a1-3)[Gal(a1-3)Gal(b1-4)[Fuc(a1-3)]GlcNAc(b1-2)Man(a1-6)]Man(b1-4)GlcNAc(b1-4)GlcNAc
# Summary of the method: as §1
# Gal(a1-3)GalNAc = molecular target: Gal(a1-3)GalNAc
# Summary of the method: as §1
# [17] = molecular target: Gal(a1-3)[Gal(a1-4)]Gal(b1-4)GlcNAc
# Summary of the method: as §1
# [18] = molecular target: Gal(a1-4)Gal(b1-3)GlcNAc(b1-2)Man(a1-3)[Gal(a1-4)Gal(b1-3)GlcNAc(b1-2)Man(a1-6)]Man(b1-4)GlcNAc(b1-4)GlcNAc
# Summary of the method: as §1
# Gal(a1-4)Gal(b1-4)Glc = molecular target: Gal(a1-4)Gal(b1-4)Glc
# Summary of the method: as §1
# Gal(a1-4)Gal(b1-4)GlcNAc = molecular target: Gal(a1-4)Gal(b1-4)GlcNAc
# Summary of the method: as §1
# [19] = molecular target: Gal(a1-4)Gal(b1-4)GlcNAc(b1-2)Man(a1-3)[Gal(a1-4)Gal(b1-4)GlcNAc(b1-2)Man(a1-6)]Man(b1-4)GlcNAc(b1-4)GlcNAc
# Summary of the method: as §1
# [20] = molecular target: Gal(a1-4)Gal(b1-4)GlcNAc(b1-3)Gal(b1-4)Glc
# Summary of the method: as §1
# Gal(a1-4)GlcNAc = molecular target: Gal(a1-4)GlcNAc
# Summary of the method: as §1
# Gal(a1-6)Glc = molecular target: Gal(a1-6)Glc
# Summary of the method: as §1
# Gal(b1-2)Gal = molecular target: Gal(b1-2)Gal
# Summary of the method: as §1
# Gal(b1-3)Gal = molecular target: Gal(b1-3)Gal
# Summary of the method: as §1
# Gal(b1-3)Gal(b1-4)GlcNAc = molecular target: Gal(b1-3)Gal(b1-4)GlcNAc
# Summary of the method: as §1
# Gal(b1-3)GalNAc = molecular target: Gal(b1-3)GalNAc
# Summary of the method: as §1
# [21] = molecular target: Gal(b1-3)GalNAc(a1-3)[Fuc(a1-2)]Gal(b1-4)Glc
# Summary of the method: as §1
# [22] = molecular target: Gal(b1-3)GalNAc(a1-3)[Fuc(a1-2)]Gal(b1-4)GlcNAc
# Summary of the method: as §1
# Gal(b1-3)GalNAc(b1-3)Gal = molecular target: Gal(b1-3)GalNAc(b1-3)Gal
# Summary of the method: as §1
# [23] = molecular target: Gal(b1-3)GalNAc(b1-3)Gal(a1-4)Gal(b1-4)Glc
# Summary of the method: as §1
# [24] = molecular target: Gal(b1-3)GalNAc(b1-4)Gal(b1-4)Glc
# Summary of the method: as §1
# [25] = molecular target: Gal(b1-3)GalNAc(b1-4)[Neu5Ac(a2-3)]Gal(b1-4)Glc
# Summary of the method: as §1
# Gal(b1-3)GlcNAc = molecular target: Gal(b1-3)GlcNAc
# Summary of the method: as §1
# [26] = molecular target: Gal(b1-3)GlcNAc(a1-3)Gal(b1-4)GlcNAc
# Summary of the method: as §1
# [27] = molecular target: Gal(b1-3)GlcNAc(a1-6)Gal(b1-4)GlcNAc
# Summary of the method: as §1
binder,measurement,setting,value
"UDA (Urtica dioica), P11218 (protein) MMMRFLSAVVIMSSAMAVGLVSAQRCGSQGGGGTCPALWCCSIWGWCGDSEPYCGRTCENKCWSGERSDHRCGAAVGNPPCGQDRCCSVHGWCGGGNDYCSGSKCQYRCSSSVRGPRVALSGNSTANSIGNVVVTEPLFDQMFSHRKDCPSQGFYSYHSFLVAAESFPAFGTIGDVATRKREVAAFLAHISQATSGERSDVENPHAWGLCHINTTTVTENDFCTSSDWPCAAGKKYSPRGPIQLTHNFNYGLAGQAIGEDLIQNPDLVEKDPIISFKTALWFWMSQHDNKPSCHDIVLNANSAANRIPNKGVIGNIISRAFGHDDFAVRSSSIGFYKRYCDMLGVSYGHDLKYWFDNTPSSEFQRIQMRVAA",glycan array binding signal (z-score),[1],-0.17
same,glycan array binding signal (z-score),[2],-0.2
same,glycan array binding signal (z-score),[3],-0.173
same,glycan array binding signal (z-score),[4],-0.172
same,glycan array binding signal (z-score),[5],-0.177
same,glycan array binding signal (z-score),Fuc(a1-4)GlcNAc,-0.178
same,glycan array binding signal (z-score),Fuc(b1-3)GlcNAc,-0.19
same,glycan array binding signal (z-score),Gal(a1-2)Gal,-0.19
same,glycan array binding signal (z-score),Gal(a1-3)Gal,-0.189
same,glycan array binding signal (z-score),Gal(a1-3)Gal(b1-3)GlcNAc,-0.152
same,glycan array binding signal (z-score),[6],-0.183
same,glycan array binding signal (z-score),[7],-0.138
same,glycan array binding signal (z-score),[8],-0.177
same,glycan array binding signal (z-score),[9],-0.182
same,glycan array binding signal (z-score),[10],-0.091
same,glycan array binding signal (z-score),Gal(a1-3)Gal(b1-4)Glc,-0.176
same,glycan array binding signal (z-score),Gal(a1-3)Gal(b1-4)GlcNAc,0.187
same,glycan array binding signal (z-score),[11],-0.18
same,glycan array binding signal (z-score),[12],-0.157
same,glycan array binding signal (z-score),[13],-0.176
same,glycan array binding signal (z-score),[14],-0.179
same,glycan array binding signal (z-score),[15],-0.183
same,glycan array binding signal (z-score),[16],-0.156
same,glycan array binding signal (z-score),Gal(a1-3)GalNAc,-0.17
same,glycan array binding signal (z-score),[17],0.253
same,glycan array binding signal (z-score),[18],-0.031
same,glycan array binding signal (z-score),Gal(a1-4)Gal(b1-4)Glc,-0.183
same,glycan array binding signal (z-score),Gal(a1-4)Gal(b1-4)GlcNAc,-0.101
same,glycan array binding signal (z-score),[19],-0.172
same,glycan array binding signal (z-score),[20],-0.175
same,glycan array binding signal (z-score),Gal(a1-4)GlcNAc,-0.155
same,glycan array binding signal (z-score),Gal(a1-6)Glc,-0.191
same,glycan array binding signal (z-score),Gal(b1-2)Gal,-0.191
same,glycan array binding signal (z-score),Gal(b1-3)Gal,-0.186
same,glycan array binding signal (z-score),Gal(b1-3)Gal(b1-4)GlcNAc,-0.167
same,glycan array binding signal (z-score),Gal(b1-3)GalNAc,-0.178
same,glycan array binding signal (z-score),[21],-0.177
same,glycan array binding signal (z-score),[22],-0.154
same,glycan array binding signal (z-score),Gal(b1-3)GalNAc(b1-3)Gal,-0.178
same,glycan array binding signal (z-score),[23],-0.163
same,glycan array binding signal (z-score),[24],-0.186
same,glycan array binding signal (z-score),[25],-0.189
same,glycan array binding signal (z-score),Gal(b1-3)GlcNAc,-0.184
same,glycan array binding signal (z-score),[26],-0.032
same,glycan array binding signal (z-score),[27],-0.166
